# Test results from the supplement of paper PMC7826260.
# This is one part of the list. Viral Rep nickase domains cut single-stranded DNA in vitro (3 µM enzyme, 1 h, 37 °C); shown is the middle of each 90-letter strand. Uncut reads are compared with the no-enzyme pool on a log2 scale; the lower, the more was cut; hits are not called. Counts are relative to all reads; where an enzyme cuts many sequences, the uncut ones exceed 0.
# Key:
# Assay in all cases: uncleaved DNA left, log2 of reads against the no-enzyme library (log2 ratio); higher = less cleavage (more negative = more Rep cleavage of the k-mer); sequences stand for … in CTCGTCCG…ACCGGAGA
# [1] = tested on: T1, Rep nickase domain of Muscovy duck circovirus
# T1 sequence (protein, residues 1-111, tag omitted): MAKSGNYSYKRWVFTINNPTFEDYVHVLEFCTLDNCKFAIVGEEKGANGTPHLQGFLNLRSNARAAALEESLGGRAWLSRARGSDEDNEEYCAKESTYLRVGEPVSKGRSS
# Description: (§1)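 A pool of 90-nt single-stranded DNAs with seven random bases just before the constant AC of the nick site (name = the seven bases) was cut by 3 µM recombinant His6-SUMO-tagged Rep nickase domain (300 nM DNA, 50 mM HEPES pH 8.0, 50 mM NaCl, 1 mM MnCl2, 1 h, 37 °C, three replicates). Uncut DNA was amplified and sequenced.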
# [2] = tested on: T2, Rep nickase domain of banana bunchy top virus
# T2 sequence (protein, residues 1-94, tag omitted): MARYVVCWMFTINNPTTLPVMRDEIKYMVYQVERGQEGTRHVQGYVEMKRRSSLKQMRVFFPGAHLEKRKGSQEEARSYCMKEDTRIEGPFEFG
# Description: as §1
# [3] = tested on: T3, Rep nickase domain of cabbage leaf curl virus
# T3 sequence (protein, residues 1-116, tag omitted): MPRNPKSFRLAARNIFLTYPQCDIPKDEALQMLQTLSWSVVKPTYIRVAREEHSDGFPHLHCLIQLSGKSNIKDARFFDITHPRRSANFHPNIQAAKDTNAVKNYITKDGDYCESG
# Description: as §1
# [4] = tested on: T4, Rep nickase domain of chickpea chlorotic dwarf virus
# T4 sequence (protein, residues 1-124, tag omitted): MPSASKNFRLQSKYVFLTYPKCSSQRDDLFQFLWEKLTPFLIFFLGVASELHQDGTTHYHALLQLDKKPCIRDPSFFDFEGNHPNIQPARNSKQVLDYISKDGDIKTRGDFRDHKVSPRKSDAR
# Description: as §1
# [5] = tested on: T5, Rep nickase domain of faba bean necrotic yellows virus
# T5 sequence (protein, residues 1-98, tag omitted): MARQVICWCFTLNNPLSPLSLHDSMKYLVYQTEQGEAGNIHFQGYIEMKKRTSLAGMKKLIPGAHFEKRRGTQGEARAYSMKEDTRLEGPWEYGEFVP
# Description: as §1
# [6] = tested on: T6, Rep nickase domain of maize striate mosaic virus
# T6 sequence (protein, residues 1-117, tag omitted): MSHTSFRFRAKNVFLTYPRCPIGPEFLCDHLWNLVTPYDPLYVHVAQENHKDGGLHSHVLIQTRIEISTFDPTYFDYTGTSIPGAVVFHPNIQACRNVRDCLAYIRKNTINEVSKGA
# Description: as §1
# [7] = tested on: T7, Rep nickase domain of porcine circovirus 2
# T7 sequence (protein, residues 2-116, tag omitted): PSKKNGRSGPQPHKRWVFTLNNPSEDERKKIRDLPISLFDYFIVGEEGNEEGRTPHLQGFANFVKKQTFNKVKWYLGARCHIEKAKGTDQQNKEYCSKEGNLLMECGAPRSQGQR
# Description: as §1
# [8] = tested on: T8, Rep nickase domain of tomato yellow leaf curl virus
# T8 sequence (protein, residues 1-136, tag omitted): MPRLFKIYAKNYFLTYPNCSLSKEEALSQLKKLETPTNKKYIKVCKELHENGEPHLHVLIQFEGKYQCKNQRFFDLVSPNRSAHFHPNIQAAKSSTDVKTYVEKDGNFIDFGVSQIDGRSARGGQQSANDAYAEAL
# Description: as §1
# [9] = tested on: T9, Rep nickase domain of wheat dwarf virus
# T9 sequence (protein, residues 1-137, tag omitted): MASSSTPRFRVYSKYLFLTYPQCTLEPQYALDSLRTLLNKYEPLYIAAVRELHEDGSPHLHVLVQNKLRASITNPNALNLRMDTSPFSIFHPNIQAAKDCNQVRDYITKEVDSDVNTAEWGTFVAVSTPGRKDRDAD
# Description: as §1
Sequence,uncleaved DNA left (log2) [1],uncleaved DNA left (log2) [2],uncleaved DNA left (log2) [3],uncleaved DNA left (log2) [4],uncleaved DNA left (log2) [5],uncleaved DNA left (log2) [6],uncleaved DNA left (log2) [7],uncleaved DNA left (log2) [8],uncleaved DNA left (log2) [9]
AAAATGA,0.0371,-0.0293,-0.0646,-0.332,0.0268,-0.873,0.141,0.00449,0.0182
AGAGGGC,0.0525,-0.0179,0.29,0.699,-0.0321,0.44,0.137,-0.000631,0.0459
CTATAAG,0.0859,0.0527,-0.711,0.0329,0.0762,-0.947,0.139,0.198,0.00958
CTGGCAG,0.021,-0.0943,-0.561,-0.426,0.0812,-0.866,0.134,-0.145,-0.145
TATCCAT,0.111,0.155,0.111,-1.08,0.0617,0.245,-0.133,0.193,0.155
ACACACC,0.126,0.00998,-0.14,-0.467,0.00156,-0.707,-0.00188,-0.124,-0.018
ACGGTTA,0.11,0.0322,-0.228,-0.635,-0.0178,0.141,-0.205,-0.0428,-0.123
AAGGAGT,0.0368,0.0152,0.216,1.35,0.0354,1.63,0.154,-0.118,-0.0578
GGGGCAA,0.0399,0.105,0.905,2.11,0.0398,2.31,0.309,-0.0683,0.152
ACGGCGA,0.126,0.0601,-0.56,0.208,-0.00375,-0.415,0.462,0.132,-0.00522
ATATCTT,-3.31,-0.243,-1.46,-2.52,0.0226,-0.885,-3.23,0.0448,-0.415
CTTCCCG,-0.254,-0.00205,-1,-0.251,-0.0498,-0.995,-0.983,-0.114,-0.0909
GAAGAAG,0.00653,-0.0434,-0.525,-0.36,0.0705,-0.904,0.117,0.00955,-0.0825
GTGCGAT,0.0676,-0.00349,0.00862,0.264,0.0216,-0.0436,0.101,0.0235,-0.0102
TTTAGAC,0.0825,0.0525,0.364,0.424,0.125,0.0219,0.0751,0.121,0.000568
TGAGGGA,0.00873,-0.0222,0.433,0.978,0.0811,0.952,0.11,0.0308,0.0803
AAGTCTT,-2.59,-3.21,-0.253,-2.46,-3.05,0.512,-4.19,0.0573,-0.0683
CTAGTCC,0.108,0.101,0.181,-0.102,0.0148,-0.0323,0.138,-0.0595,0.0812
TGAGAGA,0.135,0.0539,0.544,0.815,0.0517,0.314,0.188,0.132,0.109
ACCACTA,-0.0669,0.0277,-0.245,-1.45,-0.18,-0.866,-0.206,-0.0629,-0.104
CCTAGTA,0.0705,0.00528,-0.15,-1.14,-0.0348,-0.948,-0.0553,-0.0813,-0.0649
AGGGATC,0.0198,-0.0186,0.13,1.27,-0.183,1.42,0.0256,-0.0332,0.0541
TCTCAAC,-0.0577,0.0448,0.164,-1.46,-0.116,-0.412,-0.0183,-0.0137,-0.0517
CATTAGG,0.155,0.13,0.00705,0.552,-0.0383,-0.258,0.171,-0.00972,0.106
CTTAGAC,0.0542,0.0259,0.199,0.239,-0.0426,-0.347,0.168,0.0926,0.0426
AGGTAGT,-0.628,-0.205,-0.0894,0.348,-0.27,0.541,-3.3,-0.174,-0.188
AAATCGC,-0.0653,-0.0964,-1.62,-1.43,-0.0483,-1.45,-0.0799,-0.113,-0.336
CTAGTAC,-0.653,-0.0278,0.0247,-0.989,-0.082,-0.595,-1.62,-0.142,-0.194
GGGGGGC,0.0473,0.073,0.834,1.7,-0.0799,2.15,0.201,-0.0391,0.12
GTTTAAA,0.0128,0.116,0.365,0.977,0.128,1.82,0.142,0.142,0.108
